# The list shows a part of the results.
# B1: PhoQ; a variant is named by its letters at X, in order, P23837 (parent)
# chain: MKKLLRLFFPLSLRVRFLLATAAVVLVLSLAYGMVALIGYSVSFDKTTFRLLRGESNLFYTLAKWENNKLHVELPENIDKQSPTMTLIYDENGQLLWAQRDVPWLMKMIQPDWLKSNGFHEIEADVNDTSLLLSGDHSIQQQLQEVREDDDDAEMTHSVAVNVYPATSRMPKLTIVVVDTIPVELKSSYMVWSWFIYVLSANLLLVIPLLWVAAWWSLRPIEALAKEVRELEEHNRELLNPATTRELTSLVRNLNRLLKSERERYDKYRTTLTDLTHSLKTPLXXLQXXLRSLRSEKMSVSDAEPVMLEQISRISQQIGYYLHRASMRGGTLLSRELHPVAPLLDNLTSALNKVYQRKGVNISLDISPEISFVGEQNDFVEVMGNVLDNACKYCLEFVEISARQTDEHLYIVVEDDGPGIPLSKREVIFDRGQRVDTLRPGQGVGLAVAREITEQYEGKIVAGESMLGGARMEVIFGRQHSAPKDE
# Variants of: B1
# Assay: enrichment ratio after two sorts for PhoP signalling (ratio (wild type AVST 3.29)); higher = more functional
# Settings: with PhoP (E. coli)
row,Variant,enrichment ratio
1,QNHR,≤ 0.25
2,QDFC,≤ 0.25
3,VMRV,≤ 0.25
4,WTKV,≤ 0.25
5,SRPF,≤ 0.25
6,YWQD,≤ 0.25
7,GHNI,≤ 0.25
8,QSNM,13.1
9,KINY,≤ 0.25
10,NYFA,≤ 0.25
11,INMS,≤ 0.25
12,VNAQ,≤ 0.25
13,NYGP,≤ 0.25
14,TMEF,≤ 0.25
15,GALE,≤ 0.25
16,RESP,≤ 0.25
17,SWSL,≤ 0.25
18,EPAR,≤ 0.25
19,WMHS,≤ 0.25
20,DNAV,≤ 0.25
21,LCWL,≤ 0.25
22,PCLY,≤ 0.25
23,VWWI,≤ 0.25
24,YCTC,≤ 0.25
25,NKNW,≤ 0.25
26,HLYY,≤ 0.25

row,Variant,enrichment ratio
1,RTLH,≤ 0.25
2,RCMW,≤ 0.25
3,NSMT,≤ 0.25
4,IKTA,≤ 0.25
5,KNNM,5.03
6,SDVQ,≤ 0.25
7,GGLC,4.03
8,HIAP,≤ 0.25
9,VGWN,≤ 0.25
10,LCMV,≤ 0.25
11,LLGQ,≤ 0.25
12,VQRF,≤ 0.25
13,ECPM,≤ 0.25
14,QEPA,≤ 0.25
15,WCWQ,≤ 0.25
16,AKPA,≤ 0.25
17,TNAA,13.7
18,PNSD,≤ 0.25
19,GTAK,≤ 0.25
20,NRND,≤ 0.25
21,ANLI,23.1
22,AHMF,≤ 0.25
23,SQIA,1.28
24,MYID,≤ 0.25
25,MIPC,≤ 0.25
26,NNYI,≤ 0.25

row,Variant,enrichment ratio
1,PCNG,≤ 0.25
2,SVIN,≤ 0.25
3,APQK,≤ 0.25
4,VSDY,≤ 0.25
5,PLAT,≤ 0.25
6,PIQP,≤ 0.25
7,ESQV,≤ 0.25
8,KISD,≤ 0.25
9,RIYV,≤ 0.25
10,WDEP,≤ 0.25
11,DVGL,≤ 0.25
12,INSN,≤ 0.25
13,NRAF,≤ 0.25
14,EMIL,≤ 0.25
15,TSNP,≤ 0.25
16,SMDR,≤ 0.25
17,RSPM,≤ 0.25
18,LYKV,≤ 0.25
19,HYGM,≤ 0.25
20,AINW,≤ 0.25
21,RQVP,≤ 0.25
22,TEVP,≤ 0.25
23,PNGI,≤ 0.25
24,RIMG,≤ 0.25
25,TKRD,≤ 0.25
26,SGYQ,≤ 0.25

row,Variant,enrichment ratio
1,GMFK,≤ 0.25
2,VFVF,≤ 0.25
3,EPKF,≤ 0.25
4,WMSP,≤ 0.25
5,MILN,17.5
6,ESHW,≤ 0.25
7,VAES,≤ 0.25
8,IFFN,≤ 0.25
9,KIQP,≤ 0.25
10,ANQK,≤ 0.25
11,SIFG,≤ 0.25
12,KRFS,≤ 0.25
13,SHKQ,≤ 0.25
14,RPSY,≤ 0.25
15,HLVA,≤ 0.25
16,LLFQ,≤ 0.25
17,ENAG,≤ 0.25
18,RLTD,≤ 0.25
19,TNDY,≤ 0.25
20,FTTG,≤ 0.25
21,LDWP,≤ 0.25
22,HHDY,≤ 0.25
23,IIHP,≤ 0.25
24,TRRR,≤ 0.25
25,ARCQ,10.3
26,ENGR,≤ 0.25

row,Variant,enrichment ratio
1,VKTD,≤ 0.25
2,YCYA,≤ 0.25
3,QYDS,≤ 0.25
4,MSCV,15.3
5,MDAM,≤ 0.25
6,LWDP,≤ 0.25
7,FGSK,≤ 0.25
8,VIRR,≤ 0.25
9,TVQM,5.48
10,HFTR,≤ 0.25
11,TGID,≤ 0.25
12,DQLD,≤ 0.25
13,AALC,13.9
14,IWAC,≤ 0.25
15,WEGR,≤ 0.25
16,KAAK,≤ 0.25
17,EMQL,≤ 0.25
18,ITVM,≤ 0.25
19,RSML,≤ 0.25
20,EFWL,≤ 0.25
21,WTLA,≤ 0.25
22,RQYY,≤ 0.25
23,NHCS,≤ 0.25
24,SIIT,≤ 0.25
25,RSCS,≤ 0.25
26,EETR,≤ 0.25

row,Variant,enrichment ratio
1,DAGQ,≤ 0.25
2,IQRL,0.347
3,SRDS,≤ 0.25
4,HTSV,≤ 0.25
5,REDD,≤ 0.25
6,LTYR,≤ 0.25
7,VSNE,≤ 0.25
8,TSFH,1.38
9,WYLS,≤ 0.25
10,WEKT,≤ 0.25
11,SVCD,8.16
12,NSNR,≤ 0.25
13,TYQY,≤ 0.25
14,IWVL,≤ 0.25
15,YFSV,≤ 0.25
16,HNYH,≤ 0.25
17,EDWP,≤ 0.25
18,VRDM,≤ 0.25
19,IPHH,≤ 0.25
20,IWWK,≤ 0.25
21,FYPC,≤ 0.25
22,FGGP,0.335
23,IEDC,≤ 0.25

# Reference: a collection of fitness landscapes (doi:10.1126/science.1257360)
